# Data: the RNAGym collection of RNA variant scans (doi:10.1093/nar/gkz1192)
# The source gives no read counts; variants with many changes may rest on few reads.
# B1: CPEB3 Ribozyme (parent)
# chain: UAACAGGGGGCCACAGCAGAAGCGUUCACGUCGCAGCCCCUGUCAGAUUCUGGUGAAUCUGCGAAUUCUGCUGUAUAUCUC
# Variants of: B1
# Assay: self-cleavage, relative activity (ratio to wild type); higher = more cleavage; in vitro, sequencing
# Procedure, shortened: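 Barcoded CPEB3 ribozyme mutants, produced by rounds of error-prone PCR, self-cleaved while being transcribed with T7 RNA polymerase for 5 hours at 37°C and during a subsequent 15 min DNase I step before EDTA was added. Sequencing of template-switched cDNA on Illumina gave cleaved and total reads, and DNA sequencing assigned barcodes to variants. Each variant's relative activity is its cleaved/total read fraction divided by the unmutated ribozyme's fraction, averaged across three batches. A variant needed a minimum of 5 reads.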
row,Variant,self-cleavage
1,UAACAGGGGGCCUCAGCAGAAGCGUUCACGUCGCUGCCCCUGUCAGAUUCUGGUGAAUCCGCGAAUUCUGCUGUAUUUCUC,0.17
2,UAACAGGGGGCCUCAGCAGAAGCGUUCACGUCGCAGCCCCUGUCUGAUUCAGGUGAGUCUGCGAAUUCUGCUGUAUAUCUC,0.12
3,UAACAGGGGGCCUCAGCAGAAGCGUUCACGUCGCGGCCCCUGUCAGAUUCUGGUGAAUCUGCGAGUUCUGCAGUAUAUCUC,0.96
4,UAACAGGGGGCCUAAGAAGAGGCGUUCACGUCGCAGCCCCUGUCAGAUUCUGGUGAAUCUGCGAAUUCUGCUGUAUACCUC,0.05
5,UAACAGGGGGCCUCAGCAGAAGCGUUCACGUCGCAGCCCCUGUCGGAUUCUGGUGAAGCUGCGAAUUCUGCUGUAUAUCUC,0.05
6,UAACAGGGGGCCUCAGCAGAAGCGUUCACGUCGCGGCCCUUGUCAGAUUCUGGUGAAUCUGCGAAUUCUGCUGUAUAUCUC,1.17
7,UAACAGGGGGCCUCAGCAGAAGCGUUCUCGUCGCAGCCCCCGUCAGAUACUGGUGAAUCUGCGAAUUCUGCUGUAUAUCUC,0.66
8,UAACAGGGGGCCUCAGCAGAAGCGUUCACGUCGCAGCCCCUGUCAGAUUCUGGUGAAUCUGCGUACUCUGCUGUAUAUCUC,0.16
9,UAACAGGGGGCCUCAGCAGAAGCGUUCACGUCGCAGCCCCUGUCAGAUUCUGGUGAAUCUGCGUAUUCCGCUGUAUAUCUC,0.19
10,UAACAGGGGGCCUCAGCAGAAGCGUUCACGUCGCAGCCCCUGUCAGAUUCUGGUGAAUCUGCGGAUGCUGCUGUAUAUCUC,0.23
11,UAACAGGGGGCCUCAGCAGAAGCGUUCACGUCGCAGCCCCUGUCAGGUUCUGGUGAAUCUGCGAAUUCUGCUGUAAAUCAC,1.24
12,UAACAGGGGGCCUCAGCAGAAGCGUUCUCGUCGCGGCCCCUGUCAGAUUCUGGUGAAUCUGCGAAUUCUGCUGUAUAUAUC,1.29
13,UAACAGGGGGCCUCAGCAGAAGCGUUCACGUCGCAGCCCCUGUCAGAUUCUGGUGAAUCUGCGAGUACUGCAGUAUAUCUC,0.23
14,UAACAGGGGGCCUCAGCAGAAGCGUUCACGUCGCAGCCCCUGUCAGAUUCUGGUGGAUCUGCGAAUUAUGCUAUAUACCUC,0.51
15,UAACAGGGGGCCUCAGCAGAAGCGUUCACGUCGCAGCCCCUGUCUGAUUCUGGUAAAUCUGCGAGUUCUGCUGUAUAUCUC,0.13
16,UAACAGGGGGCCUCAGCAGAAGCGUUCACGUCGCUGCCCCUGUCAGAUUCUGGUGAACCUGCGAAUUCUGCUGUAUAUCUC,0.15
17,UAACAGGGGGCCUCAGCAGAAGCGUUCACGUCGCAGCCCCUGUCUGAUUCUGGUGAAUCUGCGAGUUCUGCUGUAUACCAC,0.11
18,UAACAGGGGGCCUCAGCAGAAGCGUUCACGUCGCAGCCCCUGUCAGGUUCUGGUGAGUCUGCGAAUUCUGCUGUAUAUCUC,0.8
19,UAACAGGGGGCCUCAGCAGAAGCGUUCACGUCGCAGCCCCUGUCGGAUUCUGGUGAGUCUGCGAAUUCUGCUGUAUAUCUC,0.4
20,UAACAGGGGGCCUCAGCAGAAGCGUUCACGUCGCGGCCCCUGUCAGAUUCUGGUGAAUCUGCAAAUUCUGCUGUAUAUCUC,1.23
21,UAACAGGGGGCCUCAGCAGAAGCGUUCACGUCGCGGCCCCUGUCAGAUUCUGGGGAAUCUGCGAAUUCUGCUGUAUAUCUC,1.25
22,UAACAGGGGGCCUCAGCAGAAGCGUUCUCGUCGCAGCCCCUGUCAGAUUCUGGUGAAUCUGCGAAUUCCGCUGUAUAUCUC,0.23
23,UAACAGGGGGCCUCAGCAGAAGCGUUCACGUCGCAGCCCCUGUCAGAUUCUGGUGAAUCUGCGUAUACUGCUGUAUAUCUC,0.19

row,Variant,self-cleavage
1,UAACAGGGGGCCUACGCAGAGGCGCUCACGUCGCAGCCCCUGUCAGAUUCUGGUGAAUCUGCGGAUUCUGCUGUAUAUCUC,0.02
2,UAACAGGGGGCCUCAGCAGAAGCGUUCACGUCGCAGCCCCUGUCAGUUUCUGGUGAAUCUGCGAAUUCUGCUGUAUAUCAC,1.07
3,UAACAGGGGGCCUCAGCAGAAGCGUUCACGUCGCUGCCCCUGUCAGAUUGUGGUGAAUCUGCGAAUUCUGCUGUAUAUCUC,0.54
4,UAACAGGGGGCCUAAGAAGAAGCGUUCACGUCGCAGCCCCUGUCAGAUUCUGGUGAAUCUGCGAAUUCUGCUGUAUACCUC,0.65
5,UAACAGGGGGCCUCAGCAGAAGCGUUCACGUCGCAGCCCCUGUCAGCUUCUGGUGAAUCAGCGAAUUCUGCUGUAUAUCUC,0.08
6,UAACAGGGGGCCUCAGCAGAAGCGUUCACGUCGCAGCCCCUGUCAGAUUCUGGUGAAUCUGCGAUUUCUGCUGCAUAUCUC,0.45
7,UAACAGGGGGCCUCAGCAGAAGCGUUCACGUCGCGGCCCCUGUCAGAUUCUGGUGAAUCUGCGUAUUCUGCUGUAUAUCUC,1
8,UAACAGGGGGCCUCAGCAGAAGCGUUCACGUCGCUGCCCCUGUCAGAUUCUGGUGAAUCUGCGAAUCCUGCUGUAUAUCUC,0.12
9,UAACAGGGGGCCUCAGCAGAAGCGUUCACGUCGCGGCCCCUGUCAGAUUCUGGUGAAUCCGCGAAAUCUGCUGUAUGUCUC,0.66
10,UAACAGGGGGCCUCAGCAGAAGCGUUCACGUCGCAGCCCCUGUCAGAUUCUGGUGAAUCUGCGAAUUCUGCUGUAUGCCUC,1
11,UAACAGGGGGCCUCAGCAGAAGCGUUCUCGUCGCAGCCCCUGUCAGAUUCUGGUGAAUCUGCGAGUUCUGCUGUAUAUCUC,0.15
12,UAACAGGGGGCCUCAGCAGAAGCGUUCGCGUCGCAGCCCCUGUCAGAUUCUGGUGAAUCUGCGAAUUCUGCCGUAUGUCUC,0.74
13,UAACAGGGGGCCUCAGCAGAAGCGUUCACGUCGCAGCCCCUGUCAGAUUCUGGUGAAUCUGCGGAUUCUGCAGAAUAUCUC,0.66
14,UAACAGGGGGCCUCAGCAGAAGCGUUCACGUCGCGGCCCCUGUCAGAUUCUGGUGAAUCCGCGAAUUCUGCUGUAUAUCAC,1.11
15,UAACAGGGGGCCUCAGCAGAAGCGUUCACGUCGCGGCCCCUGUCAGAUUCUGGUGAAUCUGCGAAUUCUGCCGUAUAUCUC,1.18
16,UAACAGGGGGCCUCAGCAGAAGCGUUCACGUCGCUGCCCCUGUCAGAUUCUGGUGAAUCUGCGAAUUCUGCCGUAUAUCUC,0.84
17,UAACAGGGGGCCUCAGCAGAAGCGUUCACGUCGCAGCCCCUGUCAGAUUCUGGUGACUCUGGGAAUUCUGCUGUAUAUCCC,0.43
18,UAACAGGGGGCCUAAGCAGGAGCGUUAACGUCGCAGUUCCUGUCAGAUUCUGGUGAAUCUGCGAAUUCUGCUGUAUACCUC,0.03
19,UAACAGGGGGCCUCAGCAGAAGCGUUCACGUCGCAGCCCCUGUCAGAUUCUGGUGGAUCUGCGAACUCUGCCGUUUAUCUC,0.3
20,UAACAGGGGGCCUCAGCAGAAGCGUUCACGUCGCAGCCCCUGUCCGAUUCAGGUGAAUCUGCGAAUUCGGCCGUAUAUCUC,0.1
21,UAACAGGGGGCCUCAGCAGAAGCGUUCACGUCGCAGCCCCUGUCAGAUUCUGGUGAAUCUGCGAAUUCUGCUGUGUAUCCC,1.07
22,UAACAGGGGGCCUCAGCAGAAGCGUUCACGUCGCUGCCCCUGUCAGACUCUGGUGAAUCUGCGGAUUCUGCUGUAUAUCUC,0.11
23,UAACAGGGGGCCUCAGCAGAAGCGUUCACGUCGCAGCCCCUGUCGGAUUCUGGUGAAUCUGCGAAUUCUGCUGUAUGUCUC,0.81

row,Variant,self-cleavage
1,UAACAGGGGGCCUCAGCAGAAGCGUUCACGUCGCAGCCCCUGUCAGAUUCUGGUGAGUCUGCGAAUUCUGCAGUAUAUCUC,0.27
2,UAACAGGGGGCCUCAGCAGAAGCGUUCACGUCGCGGCCCCUGUCAGAUUCUGGUGAAUCUGGGAAUUCUGCUCUAUAUCUC,0.23
3,UAACAGGGGGCCUCAGCAGAAGCGUUCGCGUCGCAGCCCCUGUCAGAUUCUGGUGAAUCUGCGAAUUCCGCCGCAUAUCCC,0
4,UAACAGGGGGCCUCAGCAGAAGCGUUCACGUCGCGGCCCCUGUCAGAUUCAGGUGAACCUGCGAAUUCUGCUGUAUAUCUC,1.25
5,UAACAGGGGGCCUCAGCAGAAGCGUUCACGUCGCAGCCCCUGUCAGAUUCUGGUGGAUCUGCGAAUUCUGUUGUAUAUCUC,0.53
6,UAACAGGGGGCCUCAGCAGAAGCGUUCACGUCGCAGCCCCUGUCUGAUUCUGGUGAAUCUGCGAAUUCUGCUGUAUACCUC,0.73
7,UAACAGGGGGCCUCAGCAGAAGCGUUCUUGUCGCAGCCCCUGUCAGAUUCUGGUGAAUCUGCGAAUUCUGCUGUAUAUCUC,0.23
8,UAACAGGGGGCCUCAGCAGAAGCGUUCACGUCGCAGCCCCUGUCAGAUUCUGGUGGAUCUGCGGAUUCUGCUGUAUGUCUC,0.9
9,UAACAGGGGGCCUAAGCAGAAGCGUUCACGUCGCAGCCCCUGCCAGAUUCUGGUGAAUCUACGAAUUCCGCUGUAUAUCUC,0.06
10,UAACAGGGGGCCUCAGCAGAAGCGUUCGCGUCGCAGCCCCUGUCAGAUUCUGGUGAAUCUGCGAAUUCUGCAGUAUAUCUC,0.37
11,UAACAGGGGGCCUCAGCAGAAGCGUUCACGUCGCUGCCCCUGUCGGAUUCUGGUGAAUCUGCGGAUUCUGCUGUAUAUCUC,0.17
12,UAACAGGGGGCCUCAGCAGAAGCGUUCACGUCGCAGCCCCUGUCGGAUUCUGGUGUACCUGCGGAUUCUGCUGUAUAUCUC,0.2
13,UAACAGGGGGCCUCAGCAGAAGCGUUCUCGUCGCAGCCCCCGUCAGAUUCUGGUGAGUCUGCGAAUUCAGCUGUAUAUCUC,0.37
14,UAACAGGGGGCCUCAGCAGAAGCGUUCACGUCGCAGCCCCUGUCAGGUUCUGGUGAAUCUGCGAAUUCUGCUAUAUAUCUC,1.29
15,UAACAGGGGGCCUCAGCAGAAGCGUUCACGUCGCAGCCCCUGUCAGAUUCUGGUGAAUCUGCGGAUCCACCUGAAUAUCUC,0.16
16,UAACAGGGGGCCUCAGCAGAAGCGUUCACGUCGCAGCCCCUGUCUGACACUGGUGAAUCUGCGGAUUCUGCUGUAUAUCUC,0.07
17,UAACAGGGGGCCUCAGCAGAAGCGUUCACGUCGCAGCCCCUGUCAGAUUCUGGUGGAUCUGCGACUUCAGCUGUAUAUCUC,0.15
18,UAACAGGGGGCCUCAGCAGAAGCGUUCACGUCGCAGCCCCUGUCAGAUUCUGGUGUAUCUGCGAAUACUGCUGUGCAUCUC,0.32
19,UAACAGGGGGCCUCAGCAGAAGCGUUCACGUCGCGGCCCCUGUCAGAUUCAGGCGAAUCUGCGAAUUCUGCCGUGUAUCUC,1.31
20,UAACAGGGGGCCUCAGCAGAAGCGUUCACGUCGCAGCCCCUGUCAGAUUCUGGUGAAUCUGCGGAUUCGGCUGUAUAUCUC,0.2
21,UAACAGGGGGCCUCAGCAGAAGCGUUCACGUCGCAGCCCCUGUCAGUUUCUGGUGAAUCUGCGAAUUCUGCUGUUUAUCUC,0.81
22,UAACAGGGGGCCUCAGCAGAAGCGUUCACGUCGCAGCCCCUGUCGGAUUCCGGUGGAUCUGCGAAUUCUACUGAAUAUCCC,0.38
